From the supplement of paper PMC3334620
The full ranking holds about 33,000 sequences; the median of “E-score (-0.5 to 0.5)” is about -0.032, and the highest 2% start at about 0.36. The list shows a part of the results.

target: T1, Sko1 (UniProt Q02100); assay: PBM E-score (8-mer binding enrichment) (E-score (-0.5 to 0.5)); higher = stronger / more preferred TF binding; most listed sequences are background and not binding sites; conditions: protein concentration: 200 nM; construct: GST-full length
T1 sequence: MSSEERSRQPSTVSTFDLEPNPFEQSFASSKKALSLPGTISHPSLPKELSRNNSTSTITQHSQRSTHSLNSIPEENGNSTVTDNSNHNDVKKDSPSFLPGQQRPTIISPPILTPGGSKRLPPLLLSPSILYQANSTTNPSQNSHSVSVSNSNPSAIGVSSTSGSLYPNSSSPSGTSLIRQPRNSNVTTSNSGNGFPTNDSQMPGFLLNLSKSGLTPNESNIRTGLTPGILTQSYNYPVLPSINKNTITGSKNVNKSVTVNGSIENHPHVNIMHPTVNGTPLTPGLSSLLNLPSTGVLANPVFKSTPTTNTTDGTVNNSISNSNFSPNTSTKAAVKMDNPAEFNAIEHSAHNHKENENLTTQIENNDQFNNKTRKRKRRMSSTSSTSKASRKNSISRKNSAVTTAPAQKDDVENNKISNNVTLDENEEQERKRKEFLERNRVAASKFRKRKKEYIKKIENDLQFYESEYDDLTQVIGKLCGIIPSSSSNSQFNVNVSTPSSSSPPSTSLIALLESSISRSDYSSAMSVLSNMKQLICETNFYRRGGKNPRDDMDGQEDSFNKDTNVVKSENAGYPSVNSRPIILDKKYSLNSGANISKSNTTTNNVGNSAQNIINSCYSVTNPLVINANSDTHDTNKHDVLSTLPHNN
Outline: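 Full-length yeast transcription factors or their DNA-binding domains, GST-tagged and expressed with PURExpress, were applied at about 100-200 nM to universal all-10-mer Agilent arrays. These arrays had been made double-stranded by primer extension on fresh or once-stripped slides. Detection used fluorescent anti-GST, normalisation used masliner, and E-scores for ungapped eight-base words pooled with reverse complements came from the Universal PBM Analysis Suite.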

Point of comparison: TATTCAGA, “PBM E-score” value 0.172. Against it:
- ACCATGAC — higher, 0.33
- ATTTGACC — lower, 0.0811
- ACACAGTA — lower, -0.0011
- AAGACAAC — lower, 0.122
- GCAAGGAC — lower, -0.202
- GCACCTGA — lower, -0.0568
- GCGGAAAA — lower, -0.0507
- GACTGTTA — lower, 0.0705
- TCTGCACA — lower, 0.0341
- AAGCAGGC — lower, -0.13
- CTGTTCCA — lower, -0.036
- ACCCGGCT — lower, -0.295
- GACGGCCC — lower, -0.294
- TCGGCACA — lower, -0.0756
- ATCATCCG — lower, -0.0992
- CCGAGTTA — lower, -0.0694
- ATGGGTGC — lower, -0.0925
- CTTCGTGA — higher, 0.186
- AGGAGTCC — lower, -0.36
- AGGATCTC — lower, -0.269
- AAACACTC — lower, 0.0324
- AGCACACA — lower, -0.143
- CTGCACAA — lower, 0.0052
- CAACCGAC — lower, 0.159
- ACGCTCTG — lower, -0.0625
- CCACCATA — lower, -0.1
- ATTTGATG — lower, 0.112
- GTCTCCCA — lower, -0.261
- ACGTTAAC — higher, 0.332
- CGAAGATA — lower, 0.16
- ACATTCAC — lower, -0.0321
- CATCCTTA — lower, 0.0469
- AGAAGGGG — lower, -0.316
- CCTGCGCG — lower, -0.127
- CCGCCTCA — lower, -0.292
- CTCTTGGA — lower, -0.1
- ATTGACTA — lower, -0.0436
- CCAGGGAG — lower, -0.205
- GGCCGTCA — lower, -0.184
- GAAATCTC — lower, 0.0418
- AAAGTCCG — lower, -0.155
- AGACTGAA — lower, -0.0673
- ACCTCCAT — lower, -0.332
- CCCGTTCG — lower, -0.12
- AACTTGGT — lower, 0.0279
- ATTCAGAG — lower, 0.0009
- CACGAGAC — lower, 0.105
- CCGAACTA — lower, -0.0814
- GTCGGTCA — lower, -0.129
- AAACGGTT — lower, -0.193
- CGGGTCAC — lower, -0.217
- ACGCCTAG — lower, -0.085
- AGAATCGA — lower, -0.0448
- CGTATCAG — higher, 0.262
- CTTTTAAC — lower, 0.0204
- GTGCGTCA — higher, 0.456
- CAACTAGC — lower, 0.0232
- GTGCCGTA — lower, 0.0237
- GGTACGCA — higher, 0.268
- CGGACAGA — lower, -0.0901
- CCCGGACA — lower, -0.179
- ACACGCGA — higher, 0.251
- CTTATGTA — higher, 0.274
- ATCCAGCC — lower, -0.356
- TAACGTAA — higher, 0.457
- TAGATTCA — lower, 0.00378
- CCCTGCCG — lower, -0.375
- GAGGAGGA — lower, -0.17
- AATTATTG — higher, 0.189
- ACCGGTAA — lower, 0.00473
- GTGTCGTA — higher, 0.312
- ACCGTTAG — lower, -0.0707
- AGCCAATG — lower, -0.049
- AATATGAC — higher, 0.367
- CCTATTAA — lower, -0.0774
- CAGATAAC — lower, 0.00415
- CTCTCAGA — lower, -0.0843
- ACTCGTGG — lower, -0.0737
- CCCGCATA — lower, -0.0936
- GCCGTACA — lower, -0.148
- AGAGAGGA — lower, -0.292
- ATTTCTGC — higher, 0.195
- CTTAAGCA — lower, -0.0027
- CCACGGGG — lower, -0.321
- CCGCCAAC — lower, -0.263
- GTGAGAAA — lower, 0.0805
- AAAGAGTT — lower, -0.0156
- GTTAGAAA — lower, -0.0687
- AAACAACC — lower, -0.0394
- AACTTCAC — lower, 0.116
- CCCTTTCG — lower, -0.228
- AGGCTAGC — lower, -0.274
- AGTTCTAG — lower, -0.172
- ATGTAACG — higher, 0.251
- CAGCCAAG — lower, -0.131
- AACTGGGG — lower, -0.242
- ATACTACC — lower, -0.0741
- AAAGACAC — lower, 0.143
- CGTCAGCC — higher, 0.302
- CGAACAAC — lower, 0.161
- ATAATACA — higher, 0.208
- GATGGGCC — lower, -0.32
- ATAGTCCG — lower, -0.0283
- GATGAACC — lower, -0.133
- TAAGAGAA — lower, 0.137
- TGAACACA — lower, 0.00833
- GATGGCTA — lower, -0.026
- AGTCATAG — lower, -0.0111
- ATAGGTAC — lower, 0.00968
- CTTTCGAA — lower, -0.0514
- AGACCATG — lower, -0.277
- ACCTAGGG — lower, -0.0328
- CTCTACTC — lower, -0.109
- AAACTAGA — lower, 0.00906
- GTTAGAGA — lower, -0.0441
- AATTCCCA — lower, 0.116
- AGAACTTA — lower, 0.167
- CTGCTAAA — lower, -0.0578
- CGTGGCGC — lower, 0.0703
- GCGGGACA — lower, -0.185
- AGTTACAT — lower, 0.0365
- ATATCACA — lower, -0.0494
- AAACGTAA — higher, 0.462
- AGATGGTA — lower, -0.0645
- CACGGGTA — lower, 0.0864
- CAAGGGAC — lower, -0.245
- AGCGTCTG — lower, -0.309
- ATCGTTCC — lower, -0.08
- ACCCTTAG — lower, -0.12
- CAGTAAGG — lower, -0.205
- CTTAGCGC — lower, 0.1
- AGAACGAC — lower, 0.0567
- AAACGAAT — higher, 0.207
- GGACCGCC — lower, -0.415
- ACCGTGCT — lower, -0.127
- CAGGTATG — lower, -0.00478
- AGTATTGG — lower, -0.104
- CGCTCGAC — lower, -0.216
- CTCCTGAC — lower, -0.0161
- TCGGATCA — lower, 0.0409
- TACCAATA — lower, -0.116
- GAGTTCAC — lower, 0.0307
- AAAAAGCA — lower, 0.0572
- AAAGGATG — lower, -0.0255
- CCACATAG — lower, -0.275
- AAAGTCAC — lower, -0.0178
- CCCCCTAA — lower, -0.19
- TCACTACA — higher, 0.255
- AATTATCC — higher, 0.278
- ACATGGTA — lower, 0.00395
- ATGAGACC — lower, -0.131
- ACGCCATC — higher, 0.376
- CAAGGGCA — lower, -0.326
- ATCAAAGG — lower, -0.115
- ATTCATGA — higher, 0.229
- CCACCGAA — lower, -0.00284
- GTGTAATA — higher, 0.221
- ATGGCCAA — lower, 0.0668
- GCGGGCCA — lower, -0.0885
- CTCTTGTC — lower, -0.187
- TACATTAA — higher, 0.212
- AGATTTAG — lower, 0.0772
- TACTGGGA — lower, -0.0382
- AGTGCGAC — lower, -0.0962
- CGAAAGAA — lower, 0.00601
- AGCGAGGG — lower, -0.229
- ACCCGAGG — lower, -0.22
- TGTGTTAA — higher, 0.188
- ATGGTTTA — lower, 0.0771
- CCATTATA — lower, -0.0102
- CTCGTTGC — lower, 0.127
